These results are taken from paper PMC4242493.

Some of the results follow. The list includes weakly bound sequences.

This assay addresses MaxL homodimer (UniProt P61244). In words: universal protein-binding microarray (PBM). The conditions noted are these: PBS-based mixture, 10 nM His-tagged protein dimer, 2% milk, 200 ng/uL BSA, 50 ng/uL salmon testes DNA, 0.02% TX-100; detection with Alexa 488 anti-His …; high values mean tight binding; most listed sequences are background and not binding sites; double strand, one strand shown.
Sequence of UniProt P61244 (P61244 whole entry): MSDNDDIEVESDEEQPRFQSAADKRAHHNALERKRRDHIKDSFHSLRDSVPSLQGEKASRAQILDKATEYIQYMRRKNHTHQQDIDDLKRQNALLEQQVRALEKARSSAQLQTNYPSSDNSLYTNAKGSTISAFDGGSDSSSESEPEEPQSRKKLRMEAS
As for GATAATCC, the binding signal (normalized occupancy) amounted to 0.0777. With CCCGTTCA, the binding signal (normalized occupancy) was 0.0789.

As to CGGGAAAG, the binding signal (normalized occupancy) is 0.0686. For GGCCATCA, the binding signal (normalized occupancy) amounted to 0.0767.

Regarding ATCCGTGA, the binding signal (normalized occupancy) is 0.0767.

On to CTCACTGC, for which the binding signal (normalized occupancy) stood at 0.0713. With CTCGAGGC the figure was 0.0764; with CATGTAGC, 0.0826; with AAATGCTC, 0.0794. On to AAGGTAGG, for which the binding signal (normalized occupancy) came out at 0.078. With AGCGGACC the figure was 0.0695; with CGGCCCAG, 0.0685.

Turning to AATCACGC, the binding signal (normalized occupancy) turned out to be 0.0974. The result for CGGGTTGC reads 0.0677; that for AGGGTACC, 0.0703; that for CTGACAGC, 0.071. Turning to ACCAATGA, the binding signal (normalized occupancy) was determined as 0.0767.

As for TAATACCA, the binding signal (normalized occupancy) was found to be 0.0792.

Regarding GGTAGGCA, the binding signal (normalized occupancy) was 0.0784. With TCGGACAA the figure was 0.0734; with CGTGACAG, 0.0844. The result for AGCAGTAC reads 0.0766; that for GATACAAC, 0.0773; that for ACGTTAGG, 0.0857. As for CTCGAGAG, the binding signal (normalized occupancy) was determined as 0.0744. Regarding ACGTTAGT, the binding signal (normalized occupancy) is 0.0741. Consider ACGATTAT, for which the binding signal (normalized occupancy) was 0.0841.

Regarding CCTAAAAC, the binding signal (normalized occupancy) was 0.0725. With AAAGTACG the figure was 0.0698. Consider TGCTGCAA, for which the binding signal (normalized occupancy) worked out at 0.0784.

As to CGCCTTAG, the binding signal (normalized occupancy) amounted to 0.0698. The result for ATTGTCGA reads 0.0742; that for CTCGTTTC, 0.0748. The result for CAAAAGGA reads 0.0709; that for ATTAGAAC, 0.0811; that for CCAGAGCA, 0.069.

As to AGTGAATA, the binding signal (normalized occupancy) came out at 0.0777. With CTAGTGCA the figure was 0.0807; with AATAGAGA, 0.0773; with CACATGGA, 0.162.

CAATAGTA: the binding signal (normalized occupancy) came out at 0.0769.

Consider ATCCCACG, for which the binding signal (normalized occupancy) was found to be 0.093. Take AGGGAGTA: the binding signal (normalized occupancy) stood at 0.0754. For GGAAAGAA, the binding signal (normalized occupancy) came out at 0.0743. For TCGTTCCA, the binding signal (normalized occupancy) was 0.0775. With AGCTGGCA the figure was 0.0685; with AACATCCC, 0.0765; with GGGCATGA, 0.087. For ATGAAAGG, the binding signal (normalized occupancy) turned out to be 0.0761. The result for CGGGGAAA reads 0.0698; that for ACCGACGG, 0.0644; that for CGGGAACG, 0.0714. For CACCCCGC, the binding signal (normalized occupancy) worked out at 0.0823. As to ACCGAATA, the binding signal (normalized occupancy) was 0.0807. Consider ACTTGTGA, for which the binding signal (normalized occupancy) amounted to 0.0794.

With AGGCGGTG, the binding signal (normalized occupancy) worked out at 0.0732. Consider ACCGTAGT, for which the binding signal (normalized occupancy) came to 0.0692. The result for AGACTGGG reads 0.0695; that for AGCACATC, 0.0841; that for GAGGCAGA, 0.0719. The result for CAATCTAA reads 0.0757; that for ACTGTACA, 0.0773; that for TCGTGCCA, 0.0874. As for GTCTCAAC, the binding signal (normalized occupancy) turned out to be 0.0731. The result for GCCTCCCA reads 0.0696; that for ACCAGCAC, 0.0771; that for ACGTAGCC, 0.0725. With TAGCGTCA the figure was 0.0779; with AAGGTTGT, 0.0756; with AAGTACGC, 0.0681. With TAGATTGA, the binding signal (normalized occupancy) was 0.0791.

For the sequence CTTGGACA, the binding signal (normalized occupancy) is 0.0694. As for CTGATTGA, the binding signal (normalized occupancy) turned out to be 0.0743. With CTTTCACC the figure was 0.0747.

With CTACTGAA, the binding signal (normalized occupancy) amounted to 0.0695. AATTGCCA: the binding signal (normalized occupancy) worked out at 0.0744. The result for ACGACGCC reads 0.0744; that for GCTTATTA, 0.082. In the case of AACGCTTA, the binding signal (normalized occupancy) amounted to 0.0733.

On to ACTGACGG, for which the binding signal (normalized occupancy) was found to be 0.0729. The result for GACGGATA reads 0.0752. For CCAGTCAA, the binding signal (normalized occupancy) was 0.0719. The result for ACCCCAAT reads 0.0832. The result for TAGGTAAA reads 0.0721.

Take ACAAGCTC: the binding signal (normalized occupancy) came out at 0.0721.

Turning to GAATGTGC, the binding signal (normalized occupancy) worked out at 0.0815. The result for CTAAGGAC reads 0.0719.

For GCTCCAGC, the binding signal (normalized occupancy) was determined as 0.0704. The result for CCGAAAAC reads 0.0743; that for TTAACCAA, 0.0791; that for GACACAGC, 0.0745.

For the sequence GAGGTTCC, the binding signal (normalized occupancy) is 0.0746.

As to GATAGGCA, the binding signal (normalized occupancy) turned out to be 0.0772. With ACGCCACC the figure was 0.0799.

Take GCCACGGC: the binding signal (normalized occupancy) is 0.0738. Take ATCCAGAT: the binding signal (normalized occupancy) was determined as 0.0777. On to AATCGCGA, for which the binding signal (normalized occupancy) is 0.0731.

On to TCAGGCCA, for which the binding signal (normalized occupancy) is 0.0733. The result for CCAGTGAG reads 0.0717. With GCCAGGAC the figure was 0.0757. With ATTGATAG the figure was 0.0767; with CTTGCCGA, 0.0676. For ATCTCCGA, the binding signal (normalized occupancy) stood at 0.0738. With AACAAATA the figure was 0.0809.

Regarding AAACTTGC, the binding signal (normalized occupancy) amounted to 0.0748. As for CTAAGCTA, the binding signal (normalized occupancy) was 0.0708. The result for ATGTAGTG reads 0.0796.

On to AAGCCCCT, for which the binding signal (normalized occupancy) turned out to be 0.0709. ATTAGCCA: the binding signal (normalized occupancy) turned out to be 0.0766. On to CGCCCGAA, for which the binding signal (normalized occupancy) came to 0.0715. For the sequence ATCACCAG, the binding signal (normalized occupancy) amounted to 0.0723. In the case of CCGGCCTC, the binding signal (normalized occupancy) was 0.0687. With GTTGGAAA the figure was 0.0748. Take CGATCTCC: the binding signal (normalized occupancy) was determined as 0.0714. Turning to CCCGCGTC, the binding signal (normalized occupancy) stood at 0.0709. With ACGGATGC the figure was 0.0722; with AACCGGGG, 0.072; with GATGCCGA, 0.0738. For the sequence GACCTAGC, the binding signal (normalized occupancy) was 0.0704. With CCGGGTAG the figure was 0.0691; with CACGCGAC, 0.131; with GTTCGCAA, 0.0745.

For ATGTATAC, the binding signal (normalized occupancy) was found to be 0.0915. The result for ACTTGCCC reads 0.0727; that for CGGAACCC, 0.0682; that for GGCGCTCA, 0.0725.

For TTAATCAA, the binding signal (normalized occupancy) worked out at 0.0765. Turning to ACCTGACG, the binding signal (normalized occupancy) was found to be 0.0743. With GATTAGGC the figure was 0.073. In the case of TACAAAGA, the binding signal (normalized occupancy) came to 0.0763. The result for AAGGGGAG reads 0.0717. With AGATCGGC the figure was 0.0695; with CATTAGGG, 0.0803. With CAGACAGA the figure was 0.0748; with TCATGCGA, 0.0877. In the case of AAAAGCAC, the binding signal (normalized occupancy) is 0.0792. On to CGGCTAAA, for which the binding signal (normalized occupancy) was determined as 0.0733. Take GGCGTCCC: the binding signal (normalized occupancy) amounted to 0.0654.

For CCTCGGCC, the binding signal (normalized occupancy) was 0.0694. With ATGGCTCC the figure was 0.0818; with ACCTGATC, 0.085. The result for ATCTAAGG reads 0.0748; that for ATTAAAGC, 0.0749. With TCGTCGCA the figure was 0.0708; with CCATGGAC, 0.0837; with AATCCTGG, 0.07. In the case of AACACTTG, the binding signal (normalized occupancy) worked out at 0.0757.

As to ACTGGTCT, the binding signal (normalized occupancy) stood at 0.071.

On to GAATTGGC, for which the binding signal (normalized occupancy) is 0.0709. With AGGTATAA the figure was 0.081. As for GACAGACA, the binding signal (normalized occupancy) was 0.0741.

In the case of GAGTAACA, the binding signal (normalized occupancy) stood at 0.0759. With TCCAGAGA the figure was 0.0702; with CCATATAG, 0.087. CGGAACCG: the binding signal (normalized occupancy) came out at 0.0666.

Turning to ATAACCTA, the binding signal (normalized occupancy) was 0.0779. The result for GCCAAGAC reads 0.0722; that for CTGTGACA, 0.0778; that for ATGTATGA, 0.0896.

For AATGTGGT, the binding signal (normalized occupancy) was found to be 0.0943.

As for ACGAGAAT, the binding signal (normalized occupancy) is 0.0823. With ACGTGCCT the figure was 0.0959; with AAAGTCTG, 0.0692.

Consider CGATTCCC, for which the binding signal (normalized occupancy) amounted to 0.0757. Take TAGGGTGA: the binding signal (normalized occupancy) came out at 0.076. The result for ATTATTTG reads 0.0793; that for CCCCTAGG, 0.0698. Take CTGTAGCA: the binding signal (normalized occupancy) turned out to be 0.0765. The result for CGGTTGGC reads 0.0737; that for CCATCAAG, 0.0744.

Turning to CCCCAACG, the binding signal (normalized occupancy) amounted to 0.0741.

As to AAGTGATG, the binding signal (normalized occupancy) came to 0.0756.
